Results from the supplement of paper PMC3334620.
The full ranking holds about 33,000 sequences; the median of “E-score (-0.5 to 0.5)” is about -0.04, and the highest 2% start at about 0.36. The list shows a part of the results.

biological target: T1, Hmlalpha2 (UniProt P0CY09); assay: PBM E-score (8-mer binding enrichment) (E-score (-0.5 to 0.5)); higher = stronger / more preferred TF binding; most listed sequences are background and not binding sites; details: protein concentration: 200 nM; construct: GST-full length
T1 sequence: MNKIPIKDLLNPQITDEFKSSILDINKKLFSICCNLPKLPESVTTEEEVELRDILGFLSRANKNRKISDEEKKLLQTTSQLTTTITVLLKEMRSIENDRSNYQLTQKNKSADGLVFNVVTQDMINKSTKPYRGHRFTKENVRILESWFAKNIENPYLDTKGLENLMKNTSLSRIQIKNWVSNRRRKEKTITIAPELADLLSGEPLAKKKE
Method in brief: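 Full-length yeast transcription factors or their DNA-binding domains, GST-tagged and expressed with PURExpress, were applied at about 100-200 nM to universal all-10-mer Agilent arrays. These arrays had been made double-stranded by primer extension on fresh or once-stripped slides. Detection used fluorescent anti-GST, normalisation used masliner, and E-scores for ungapped eight-base words pooled with reverse complements came from the Universal PBM Analysis Suite.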

| Sequence | PBM E-score |
| --- | --- |
| ACAGTCGG | -0.0533 |
| CTTAGTTA | 0.151 |
| AGTCCTAA | -0.0904 |
| TAACACGA | 0.469 |
| CATTCCAC | -0.0104 |
| GGCAAGCA | -0.213 |
| ACTGTGAC | -0.146 |
| AACCATAG | -0.0629 |
| CTGCTCAA | -0.0451 |
| AACTCCAG | -0.198 |
| GGCTTAGA | -0.122 |
| CTGGGACC | -0.287 |
| CCGCGATC | -0.238 |
| GCGGAAGC | -0.085 |
| AATAAGGA | -0.197 |
| ATTTAAAG | 0.0592 |
| ACTTCACT | 0.12 |
| AGTTGGCA | -0.0319 |
| GCAATGAA | 0.126 |
| GTGATAGA | -0.0196 |
| ATACAGTA | 0.163 |
| CAGCCGCG | -0.172 |
| CCGGGCAG | -0.165 |
| TATTTCCA | -0.0156 |
| AGAAGACA | 0.0723 |

| Sequence | PBM E-score |
| --- | --- |
| CGGAGCCC | -0.415 |
| AAGCGTTG | 0.0949 |
| CTATAGCA | 0.0274 |
| AGGAGAGC | -0.0855 |
| ACCGTGAC | -0.0799 |
| ACTTGACC | 0.0105 |
| TCCATACA | 0.0677 |
| AAAAATGG | -0.0468 |
| CGTGGTAC | 0.0548 |
| GACACGTA | 0.293 |
| GGCTCACA | -0.0742 |
| CATGTCGG | 0.265 |
| CAGCGTAG | -0.0302 |
| AGCGTCTC | -0.27 |
| AAGGACCG | -0.108 |
| CATTCAAG | -0.202 |
| CTACTTAA | -0.0595 |
| GAGTATGC | 0.0811 |
| AGTCCTAG | -0.107 |
| CCTCCGTA | -0.266 |
| CAGTCGTC | -0.24 |
| CATCGAGC | -0.105 |
| CTCCGGTC | -0.236 |
| GAATGGCC | -0.175 |
| CCTCCTGA | -0.0675 |

| Sequence | PBM E-score |
| --- | --- |
| GGACTTAC | 0.0953 |
| ATGAGATA | 0.0757 |
| TCCGAGGA | -0.27 |
| CCCGTCTC | -0.259 |
| CCGGTCCG | -0.401 |
| CTAAGCAG | -0.0545 |
| ATGGGTTG | 0.0606 |
| GCACCCAA | -0.283 |
| TCAATCCA | -0.113 |
| GCGATCAA | 0.0688 |
| GTCATGTA | 0.442 |
| GATTGGCA | -0.141 |
| AGCGTATC | -0.037 |
| GCCCTCGA | -0.0838 |
| CGTAGGCC | 0.00375 |
| AGCTAGAC | -0.107 |
| CTACCCTC | -0.301 |
| ACCAGCAA | -0.11 |
| ACGAGCCT | 0.0405 |
| GATGCTAA | 0.0719 |
| ACTCCGGC | -0.016 |
| AAGCATAA | 0.0376 |
| GACAACTA | 0.192 |
| ATCGTAGC | 0.0907 |
| ATGCATCG | 0.147 |

| Sequence | PBM E-score |
| --- | --- |
| AAAGAGAC | -0.116 |
| GAATGTTA | 0.287 |
| AGCGTCCG | -0.0393 |
| AGTGTGAA | 0.108 |
| AATTTAGG | 0.127 |
| ACGGCGAC | -0.161 |
| CGGATTTA | 0.0972 |
| CCAGCAAC | 0.0365 |
| AGAGGCAT | -0.128 |
| AGACATAC | 0.242 |
| CGCCCCCG | -0.26 |
| ACTTACGC | 0.28 |
| TGGATGAA | -0.0166 |
| GTCGGGGA | -0.0496 |
| GACTCTGA | -0.12 |
| AAGGCCCC | -0.17 |
| GCAGGCGC | -0.153 |
| ATTCGAAC | 0.159 |
| GCGCACGC | -0.233 |
| ACAATCAC | 0.0329 |
| AGGGAGCC | -0.286 |
| CTGGCTAA | -0.146 |
| CAATGGTA | 0.00497 |
| AATTAGGG | 0.00029 |
| ACGAACAA | 0.332 |

| Sequence | PBM E-score |
| --- | --- |
| ACTGTGTC | 0.174 |
| GAAGAATA | 0.117 |
| CACGCACA | 0.192 |
| GCCACACA | -0.192 |
| AGTGTAAC | 0.198 |
| CGGGGACG | -0.201 |
| CGGAGTAG | -0.239 |
| CCGAGGAG | -0.301 |
| AGATAGCT | -0.117 |
| ACGAGGCG | 0.127 |
| GACAATTA | 0.246 |
| AAGAATAC | 0.244 |
| ATACTCGG | 0.0213 |
| AGTGTTTC | 0.0934 |
| TGCTCACA | -0.0264 |
| AGTTGAAC | 0.0261 |
| ATGCTGTG | 0.238 |
| ATAACGTA | 0.321 |
| CACGAACA | 0.253 |
| TCCTGGCA | -0.158 |
| ATGTTTGA | 0.153 |
| CATGTATA | 0.466 |
| GCGCTCCC | -0.274 |
| CGCCGGGA | -0.319 |
| GCGAATCA | -0.0266 |

| Sequence | PBM E-score |
| --- | --- |
| ATGAGTGG | -0.233 |
| CCAAGGCC | -0.267 |
| GCTTAGAC | -0.285 |
| ACGCGCAT | 0.278 |
| CAATAAAG | -0.0833 |
| CCCCTGGA | -0.236 |
| TAAGAGCA | 0.027 |
| TCCGTGAA | 0.145 |
| CTACTGGA | -0.198 |
| AGCGAACA | 0.049 |
| ACGATCGC | -0.00669 |
| AGGGACAA | -0.273 |
| ACCCCCTA | -0.345 |
| CACTTGAG | -0.22 |
| GTAAAGGA | 0.252 |
| AAATGATT | 0.157 |
| AGATATCC | 0.0071 |
| ATGTCAGA | 0.149 |
| GTTTCGAA | 0.0112 |
| AGGTCTCG | -0.0533 |
| TCCTTGCA | -0.139 |
| AGCCCCCA | -0.324 |
| GTACGAAC | 0.152 |
| GCAGAACA | 0.131 |
| GACCAGAA | -0.0844 |

| Sequence | PBM E-score |
| --- | --- |
| ACCAACCG | -0.107 |
| GCGAGGCC | -0.23 |
| ACGAATAA | 0.0594 |
| GCCGGGCC | -0.212 |
| GGGCCTTA | -0.0909 |
| ATCTGGAC | -0.105 |
| AGGTCAGG | -0.274 |
| GGATTTCA | -0.111 |
| ATTTTAGC | -0.0525 |
| CGCGTGTC | 0.262 |
| TATGGGCA | -0.0609 |
| GCGGCCCC | -0.354 |
| TGTTTAAA | 0.34 |
| ATCATACA | 0.252 |
| GAAAAGCC | -0.395 |
| ATCATTAG | 0.0107 |
| GAACAAGC | 0.117 |
| ACCTGGTA | -0.0673 |
| ATTAGGTG | -0.102 |
| ACAGCTAA | 0.206 |
| CGCTCATC | -0.112 |
| GCGGAAGA | -0.139 |
